One molecule from patent US20070218061A1 can be followed below.

The assay addresses HeV and NiV F and G envelope glycoproteins (on effector cells). Put plainly: cell-based or functional assay.

B1: B2EC-FC (Fc fusion)
chain: IVLEPIYWNSSNSKFLPGQGLVLYPQIGDKLDIICPKVDSKTVGQYEYYKVYMVDKDQADRCTIKKENTPLLNCAKPDQDIKFTIKFQEFSPNLWGLEFQKNKDYYIISTSNGSLEGLDNQEGGVCQTRAMKILMKVGQDASSAGSTRNKDPTRRPELEAGTNGRSSTTSPFVKPNPGSSTDGNSAGHSGNNILGSEVDP[human IgG1 Fc not spelt out]
As for B1, the % fusion (cell fusion assay), 0.1 µg/ml inhibitor was 84%; the % fusion (cell fusion assay), 1.0 µg/ml inhibitor turned out to be 96%; the % fusion (cell fusion assay), 10 µg/ml inhibitor came out at 30.7%; the % fusion (cell fusion reporter gene assay, beta-Gal), 10 µg/ml protein amounted to 15.2%.
